Results reported in PubChem BioAssay AID588579 (National Center for Advancing Translational Sciences (NCATS), 2011).
The campaign covered roughly 400,000 compounds. About 2,200 (0.55%) were called active. Inconclusive means that the source gave no clear call. Such entries were picked first, then a sample of the others. The call rests on the fitted dose curve; in most records, active means well fitted inhibition curve with a large enough effect; inconclusive means small, poorly fitted or top-dose-only effect, or another doubt; inactive means no such curve, though single readings can be large or run the other way. Where the call is inconclusive, the potency comes from a doubtful curve fit.

Each compound was assayed against DNA polymerase kappa (Homo sapiens) (UniProt Q9UBT6) (assay: qHTS for Inhibitors of Polymerase Kappa). Conditions: purified Pol kappa, fluorescent DNA synthesis assay, 10 min; series mostly up to 107 µM.
How it was run: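 Fluorescent qHTS in 1536-well format: enzyme (10 nM) and compound sat 15 min at room temperature before 50 nM substrate (final) was added. Signal taken at 0 and 10 min; no-enzyme buffer wells were negative controls.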
On the % scale 0 is the no-effect control and ±100 the full control effect; potency means the concentration at half of the fitted maximal effect; tags describe the fitted curve by direction and shape.

Sequence of UniProt Q9UBT6 (Q9UBT6 whole entry, looked up): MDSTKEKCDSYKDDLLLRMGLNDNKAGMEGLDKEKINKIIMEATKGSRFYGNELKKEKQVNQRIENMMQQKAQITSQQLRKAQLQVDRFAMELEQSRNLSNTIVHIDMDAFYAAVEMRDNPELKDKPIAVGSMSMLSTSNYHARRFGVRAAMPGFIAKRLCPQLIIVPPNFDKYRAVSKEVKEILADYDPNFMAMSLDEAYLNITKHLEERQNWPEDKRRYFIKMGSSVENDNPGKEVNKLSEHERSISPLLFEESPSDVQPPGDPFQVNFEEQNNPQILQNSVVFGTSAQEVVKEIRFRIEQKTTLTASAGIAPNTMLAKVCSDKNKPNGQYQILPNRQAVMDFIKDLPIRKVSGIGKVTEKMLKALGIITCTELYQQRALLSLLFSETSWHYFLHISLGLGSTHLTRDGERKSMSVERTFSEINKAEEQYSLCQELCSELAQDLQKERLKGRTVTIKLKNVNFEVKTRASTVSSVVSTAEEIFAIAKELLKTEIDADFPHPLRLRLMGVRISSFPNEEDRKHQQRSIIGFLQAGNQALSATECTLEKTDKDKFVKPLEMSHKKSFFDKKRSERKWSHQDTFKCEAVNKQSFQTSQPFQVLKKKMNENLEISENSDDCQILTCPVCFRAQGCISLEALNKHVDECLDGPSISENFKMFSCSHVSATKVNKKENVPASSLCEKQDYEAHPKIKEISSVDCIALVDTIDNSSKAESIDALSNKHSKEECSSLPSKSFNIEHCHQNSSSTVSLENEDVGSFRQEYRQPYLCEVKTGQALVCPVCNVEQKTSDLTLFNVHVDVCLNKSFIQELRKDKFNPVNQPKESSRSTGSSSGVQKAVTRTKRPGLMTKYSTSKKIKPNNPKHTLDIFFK

Potency, inactive:
CCCS(=O)(=O)c1nc(S(=O)(=O)c2ccc(C)cc2)c(NCC(C)C)s1
Cc1nc2c(-c3ccccc3)c(C)[nH]n2c(=O)c1Cc1ccc(Br)cc1
C=CCN1C(=O)/C(=C2/Sc3ccccc3N2CC)SC1=S
CC(OC(=O)Cn1[nH]c(=O)c2ccccc2c1=O)C(=O)Nc1ccc(F)cc1 (centres undefined)
COc1cc(NC(=O)CSCC(=O)Nc2cc(OC)cc(OC)c2)cc(OC)c1
Cc1ccc(-c2[nH]nc3c2C(c2cccnc2)C(C#N)=C(N)O3)cc1 (centres undefined)

Potency, active:
Cc1cc(C)cc(NC(=O)CSCn2nnc3c(=O)[nH]c(Cc4ccc(F)cc4)nc32)c1 79.4 µM

Potency, inconclusive:
NC(=S)n1[nH]c(-c2ccc([N+](=O)[O-])cc2)c(N=Nc2ccc(O)cc2)c1=O 89.1 µM [inhibitor, single point]
CCOc1ccc(NC(=S)Nc2cccc3cnccc23)cc1 89.1 µM [inhibitor, partial curve, poor fit]
COc1ccc(CN2CC[C@H]3C=CC[C@@H](C(=O)NCc4cccnc4)[C@H]3C2=O)cc1OC 89.1 µM [inhibitor, partial curve, poor fit]
COc1cc2nc(N(C)C)nc(NC3CCN(C)CC3)c2cc1OC 56.2 µM [inhibitor, partial curve, poor fit]
Cc1ccn(CCC(=O)N2c3ccccc3CC2C)n1 (centres undefined) 89.1 µM [inhibitor, partial curve, poor fit]
Cc1cccc(C(=O)OCC(=O)c2csc(N3CCCCC3)n2)c1[N+](=O)[O-] 79.4 µM [inhibitor, partial curve, poor fit]
Cc1ccc2c(CC(=O)N3CCN(S(=O)(=O)c4ccccc4)CC3)coc2c1 100 µM [inhibitor, single point]
C=CCn1c(O)c(N=NC(=O)CNC(=O)/C=C/c2ccco2)c2ccccc21 50.1 µM [inhibitor, partial curve, poor fit]
Cc1cc(=O)[nH]c(SCC(=O)Nc2ccc(S(N)(=O)=O)cc2)n1 79.4 µM [inhibitor, single point]
COc1ccc(CCN2CC(C(=O)OCC(=O)NC(Cc3ccccc3)C(C)=O)CC2=O)cc1OC (centres undefined) 89.1 µM [inhibitor, partial curve, poor fit]
COc1cc2c(c(OC)c1OC)C(c1ccccc1C)CC(=O)O2 (centres undefined) 44.7 µM [inhibitor, partial curve, poor fit]

activity, negative = inhibition, inactive:
CN(C)CCO[C@](C)(c1ccccc1)c1ccccn1 -5.22% [at 12 µM]
